According to paper PMC6919601, “Identification of Plasmodium dipeptidyl aminopeptidase allosteric inhibitors by high throughput screening” (PLoS ONE, 2019):
About 230 (0.21%) of roughly 110,000 compounds showed an effect of 50% or more. The list shows a part of the results.

molecular target: DPAP1 (Plasmodium falciparum, UniProt Q8IIJ9); test: primary screen, percent inhibition; read by cleavage of a fluorogenic dipeptide substrate; higher = more effect of the substance; design: species or system P. falciparum D10 trophozoite lysates; single well
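Further: 30 min substrate incubation versus DMSO and 10 µM JCP410 controls.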

Chain of DPAP1 (Q8IIJ9 whole entry, looked up): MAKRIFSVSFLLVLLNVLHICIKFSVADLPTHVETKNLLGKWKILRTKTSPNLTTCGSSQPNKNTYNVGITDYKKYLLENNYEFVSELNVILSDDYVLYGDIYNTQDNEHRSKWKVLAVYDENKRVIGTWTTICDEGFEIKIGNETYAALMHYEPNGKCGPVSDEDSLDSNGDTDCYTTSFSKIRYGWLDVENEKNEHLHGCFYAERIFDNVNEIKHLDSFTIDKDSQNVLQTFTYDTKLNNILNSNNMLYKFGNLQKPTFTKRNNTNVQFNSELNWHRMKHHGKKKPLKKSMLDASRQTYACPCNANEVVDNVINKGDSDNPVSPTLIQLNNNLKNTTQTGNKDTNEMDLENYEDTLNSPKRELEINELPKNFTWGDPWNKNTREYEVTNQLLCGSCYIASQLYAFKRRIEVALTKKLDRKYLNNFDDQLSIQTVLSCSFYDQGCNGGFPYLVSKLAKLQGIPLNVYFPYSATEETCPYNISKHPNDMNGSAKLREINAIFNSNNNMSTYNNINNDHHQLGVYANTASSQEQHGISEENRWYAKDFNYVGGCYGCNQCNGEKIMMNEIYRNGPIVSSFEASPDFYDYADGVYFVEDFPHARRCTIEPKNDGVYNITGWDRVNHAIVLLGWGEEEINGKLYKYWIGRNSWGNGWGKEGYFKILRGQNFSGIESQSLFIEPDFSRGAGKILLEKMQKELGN

Row | Structure (SMILES) | % Inhibition @ 10 uM [%]
1 | COc1ccccc1CNc1nnc(C)c2nnn(Cc3ccccc3Cl)c12 | 0.00706
2 | O=C(CCCOc1ccc(Cl)cc1Cl)N1CCN(c2ccc([N+](=O)[O-])cc2)CC1 | 0.708
3 | N#Cc1ccc(Oc2ccc(-c3nc4ccccc4c(=O)o3)cc2)cc1C#N | -5.47
4 | CC(C)(C)c1ccc(S(=O)(=O)Nc2ccc(O)cc2)cc1 | -2.86
5 | Cc1ccc(N2CC(=O)NC2=O)cc1 | 5.01
6 | COc1ccc(C(=O)CSC(=O)Nc2ccccc2)cc1 | -2.62
7 | CN1C(=O)/C(=C2\SC(=O)NC2=O)c2ccccc21 | 1.74
8 | COc1cccc(/C(O)=C/c2nc3nonc3nc2O)c1 | -5.29
9 | N#CC1=C(N)Oc2c(ccc3ccccc23)C1c1ccccc1Cl (centres unmarked) | -2.89
10 | N#CC1=C(N)NC(SCc2ccccc2)=C(C#N)C1c1ccccc1Cl (centres unmarked) | 31.7
11 | Cc1ccc(-c2nnc(S)n2/N=C/c2c(C)nn(-c3ccccc3)c2O)cc1 | 4.18
12 | NC(=O)Cn1c2ccccc2c2nc3ccccc3nc21 | 0.812
13 | O=C(O)c1ccc(NCn2nnc3ccccc32)cc1 | 3.82
14 | O=C(Nc1ccc2nc(SCC(=O)N3CCOCC3)sc2c1)c1ccccc1 | -0.413
15 | Cc1ccc(NCc2ccc3c(c2)OCO3)cc1C | -7.17
16 | Cc1nn(CC(=O)NCCCN2CCCC2=O)c(=O)c2cccn12 | -1.65
17 | OC1=C2Sc3ccc(Cl)cc3N=C2CCC1 | 2.51
18 | CC(C)C(=O)Nc1ccc(-c2nc(O)c3ccccc3n2)cc1 | 3.21
19 | COc1cccc(CNCc2c(F)cccc2F)c1OC | -4.7
20 | CCCCNC(=O)CCc1c(C)nc2nc(C)nn2c1C | -6.03
21 | CCCCCn1c(=O)c(C(=O)Nc2ccccc2Cl)c(O)c2ccccc21 | -2.88
22 | Cc1ccc2oc(=O)c(-c3nc4ccncc4[nH]3)cc2c1 | 0.351
23 | O=C(Nc1cccc(Cl)c1)Nc1cccc2cccnc12 | -3.79
24 | O=C(O)CSc1nnc(-c2ccccc2Cl)n1-c1ccccc1 | -2.39
25 | CC(C)(C)C1CCC(N2CCCC(C(N)=O)C2)CC1 (centres unmarked) | 0.217

Row | Structure (SMILES) | % Inhibition @ 10 uM [%]
26 | COC(=O)c1nc2ccccc2n1Cc1ccc(C)cc1 | 0.0882
27 | COc1ccc(CCNC(=O)CSc2nc3ccccc3nc2N2CCCC2)cc1OC | -3.53
28 | CC(C)=C1C2C=CC1C1C(=O)N(c3ccc(C(=O)O)cc3)C(=O)C21 (centres unmarked) | -7.02
29 | COc1cc2c(cc1OC)C(C(=O)NCCN(C)C)C(c1cccnc1)N(C)C2=O (centres unmarked) | 0.287
30 | CCC1CCCCN1S(=O)(=O)c1cccs1 (centres unmarked) | 5.7
31 | Cc1cccc(CCNC(=O)C2CCC(C/N=c3/c(N4CCCC4)c(O)c3=O)CC2)c1 (centres unmarked) | -4.19
32 | COc1ccc(C(=O)Cn2ccnc2C(=O)NCCc2ccc(Cl)cc2)cc1 | 4.83
33 | CCOC(=O)c1c(NC(=O)c2cc(OC)c(OC)c(OC)c2)sc(-c2ccccc2)c1C | -4.49
34 | Cc1oc(-c2ccc(C(=O)NCCCN3CCOCC3)cc2)nc1CS(=O)(=O)c1ccccc1 | -6.31
35 | CCN(CC)CCn1c(NC(=O)C(F)(F)F)nc2ccccc21 | -2.47
36 | Cc1cc(=O)n2nc(N3CCC(C(=O)NCCc4ccc(Cl)cc4)CC3)sc2n1 | -0.281
37 | COc1cccc(Cn2c(C)c(CNC3CCCCCC3)c(C(=O)O)c2C)c1 | -3.67
38 | Cc1nn(C(C)C(=O)NCCC(C)C)c(=O)c2nn(-c3ccccc3)c(C)c12 (centres unmarked) | -1.76
39 | O=C(O)CNc1ncnc2sc3c(c12)CCCC3 | 2.38
40 | O=C(O)c1cccc(-c2ccc(/C=c3/sc4nc5ccccc5n4c3=O)o2)c1 | -3.21
41 | CCC1CCCCN1S(=O)(=O)c1ccccc1 (centres unmarked) | 0.605
42 | COc1ccc(N(CC(=O)NCc2ccc(Cl)cc2)S(C)(=O)=O)cc1OC | -5.27
43 | C=CCN1C(=O)C2(NC(C)C3C(=O)N(Cc4ccccc4)C(=O)C32)c2ccccc21 (centres unmarked) | -1.38
44 | CCOc1ccc(-c2nc(CS(=O)(=O)CC(=O)NCc3ccccc3Cl)c(C)o2)cc1 | -6.68
45 | Cc1ccc(S(=O)(=O)NC(=O)COc2ccccc2C)cc1 | 2.08
46 | Cn1c(=O)[nH]c(=O)c2c1ncn2CCN(Cc1ccccc1)Cc1ccccc1 | 0.812
47 | CC(Nc1cnn(C23CC4CC(CC(C(=O)O)(C4)C2)C3)c(=O)c1Cl)c1ccccc1 (centres unmarked) | 7.15
48 | CS(=O)(=O)CC[C@@H](C(=O)NCc1ccco1)N1Cc2ccccc2C1=O | -0.465
49 | O=C(CSc1nc2cc(Cl)ccc2s1)NCC1CCCO1 (centres unmarked) | 2.67
50 | O=C(c1ccc(F)cc1)N1CCN(Cc2cccc(Br)c2)CC1 | -3.76
